Measurements as given in the supplement of paper PMC3334620.
The full ranking holds about 33,000 sequences; the median of “E-score (-0.5 to 0.5)” is about -0.054, and the highest 2% start at about 0.35. The list shows a part of the results.

The sequences below were run against T1, Stb5 (UniProt P38699) (assay: PBM E-score (8-mer binding enrichment) (E-score (-0.5 to 0.5)); higher = stronger / more preferred TF binding; most listed sequences are background and not binding sites). Details: protein concentration: 200 nM; construct: GST-full length.
T1 sequence: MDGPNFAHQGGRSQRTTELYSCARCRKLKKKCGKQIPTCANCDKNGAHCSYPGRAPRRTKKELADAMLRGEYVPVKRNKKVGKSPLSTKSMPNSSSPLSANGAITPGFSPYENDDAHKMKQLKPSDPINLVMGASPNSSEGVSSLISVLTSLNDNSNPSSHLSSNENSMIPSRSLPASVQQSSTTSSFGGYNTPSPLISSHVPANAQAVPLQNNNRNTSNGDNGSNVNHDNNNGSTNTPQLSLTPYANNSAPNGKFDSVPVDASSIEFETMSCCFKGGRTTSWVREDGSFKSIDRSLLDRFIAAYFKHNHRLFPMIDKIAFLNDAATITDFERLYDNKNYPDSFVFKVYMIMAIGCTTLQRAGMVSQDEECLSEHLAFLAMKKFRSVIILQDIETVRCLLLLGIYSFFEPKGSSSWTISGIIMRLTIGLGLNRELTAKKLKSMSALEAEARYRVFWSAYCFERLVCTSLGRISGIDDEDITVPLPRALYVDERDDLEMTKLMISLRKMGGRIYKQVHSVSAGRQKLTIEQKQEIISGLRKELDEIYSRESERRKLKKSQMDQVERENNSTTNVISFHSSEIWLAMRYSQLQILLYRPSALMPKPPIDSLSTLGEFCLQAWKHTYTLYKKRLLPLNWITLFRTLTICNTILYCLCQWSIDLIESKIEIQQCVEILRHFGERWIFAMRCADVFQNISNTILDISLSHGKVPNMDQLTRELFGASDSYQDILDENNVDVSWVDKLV
Outline: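 E-scores (a modified Wilcoxon-Mann-Whitney statistic) were assigned by the Universal PBM Analysis Suite to every ungapped eight-base word pooled with its reverse complement. The input came from universal all-10-mer Agilent arrays made double-stranded by primer extension and probed with GST-tagged yeast transcription factors at about 100-200 nM. Fluorescent anti-GST detected bound protein, and masliner normalised the scans.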
For AGTTTCAG, the “PBM E-score” value was -0.0163.
With ACCGGTCT the “PBM E-score” value was 0.31.
For ACGGCTAC, the “PBM E-score” value was -0.0612.
With CCGGACCC the “PBM E-score” value was 0.29.
For CAGTTAAG, the “PBM E-score” value was 0.0137.
For AAGAGTAG, the “PBM E-score” value was 0.0093.
For ACATTCGC, the “PBM E-score” value was 0.0612.
AAGCGCGT was tested, and the “PBM E-score” value was 0.084.
For TGAGGAAA, the “PBM E-score” value was -0.0514.
With CGTGAAGC the “PBM E-score” value was -0.0144.
ACCAACGT was tested, and the “PBM E-score” value was -0.12.
In the case of AAGTGGGT, the “PBM E-score” value was -0.0391.
For ACAAACGG, the “PBM E-score” value was 0.292.
AGAGCTCC was tested, and the “PBM E-score” value was -0.0376.
GTAGGCTA was tested, and the “PBM E-score” value was -0.198.
With ATACAACA the “PBM E-score” value was -0.22.
With ATCGGCAG the “PBM E-score” value was 0.219.
ACTCACTA was tested, and the “PBM E-score” value was -0.243.
With GGCCCCTA the “PBM E-score” value was 0.0521.
CTTTAGCC was tested, and the “PBM E-score” value was 0.00711.
With CTGTGAAC the “PBM E-score” value was -0.043.
For CGTTCGTC, the “PBM E-score” value was 0.0524.
With CATCGTGA the “PBM E-score” value was -0.0873.
With ATAGTGGA the “PBM E-score” value was -0.0424.
With GAGATGCC the “PBM E-score” value was 0.033.
ATCAATAC was tested, and the “PBM E-score” value was -0.143.
GACAACGA was tested, and the “PBM E-score” value was -0.0758.
In the case of TAGGTCGA, the “PBM E-score” value was -0.0972.
For CCCTTATC, the “PBM E-score” value was -0.0693.
With AGAGGACT the “PBM E-score” value was -0.236.
With AGGTTTAC the “PBM E-score” value was -0.199.
For CTCCCCTC, the “PBM E-score” value was -0.17.
CACGACAA was tested, and the “PBM E-score” value was -0.115.
AAGTACAA was tested, and the “PBM E-score” value was -0.0817.
In the case of ATCCGATA, the “PBM E-score” value was 0.22.
GGGTATCA was tested, and the “PBM E-score” value was -0.079.
CTGAGAAA was tested, and the “PBM E-score” value was -0.115.
CTCTTTTC was tested, and the “PBM E-score” value was -0.0815.
CTCCCGGA was tested, and the “PBM E-score” value was 0.188.
In the case of AAGATGCG, the “PBM E-score” value was -0.0714.
AACACGAA was tested, and the “PBM E-score” value was -0.0676.
In the case of GACGTGTA, the “PBM E-score” value was -0.123.
With GAAGGCTA the “PBM E-score” value was -0.125.
For CTATGAAC, the “PBM E-score” value was -0.0678.
AACACCAC was tested, and the “PBM E-score” value was 0.113.
With GCTGAAAA the “PBM E-score” value was -0.15.
With CGGATCCA the “PBM E-score” value was 0.267.
With AGTAGTCA the “PBM E-score” value was -0.146.
For ATCAGCAA, the “PBM E-score” value was -0.0974.
In the case of AAAGACCC, the “PBM E-score” value was 0.0704.
With ATGCTTGA the “PBM E-score” value was -0.155.
With TCGATCCA the “PBM E-score” value was -0.198.
For ATGCGCGA, the “PBM E-score” value was 0.0413.
With ACTGGAGA the “PBM E-score” value was -0.164.
With ATCACAAG the “PBM E-score” value was -0.139.
For AACTCTTA, the “PBM E-score” value was -0.0636.
For GGCCCGAC, the “PBM E-score” value was 0.358.
In the case of GACATCGA, the “PBM E-score” value was -0.081.
ATGTATTA was tested, and the “PBM E-score” value was -0.0988.
ATCGAGGA was tested, and the “PBM E-score” value was -0.264.
With CGCACCGC the “PBM E-score” value was 0.352.
ACACTCAA was tested, and the “PBM E-score” value was -0.254.
With AAGCTACC the “PBM E-score” value was -0.101.
In the case of TACTCGCA, the “PBM E-score” value was -0.136.
In the case of GTTACGGA, the “PBM E-score” value was 0.125.
In the case of AATGCCAA, the “PBM E-score” value was -0.237.
For ACCTGCCC, the “PBM E-score” value was 0.0486.
AACGGTCC was tested, and the “PBM E-score” value was 0.254.
AAACAAGC was tested, and the “PBM E-score” value was -0.0111.
With AGCACCTG the “PBM E-score” value was -0.14.
With GCTATACC the “PBM E-score” value was 0.179.
CGCTCACC was tested, and the “PBM E-score” value was -0.0684.
In the case of ACATTCAA, the “PBM E-score” value was -0.022.
AGGCATAC was tested, and the “PBM E-score” value was -0.223.
For AATAACCT, the “PBM E-score” value was -0.215.
GAGTGTCC was tested, and the “PBM E-score” value was 0.0712.
With GAGGTGAC the “PBM E-score” value was -0.092.
With CCATCATA the “PBM E-score” value was -0.19.
AGCTTACC was tested, and the “PBM E-score” value was -0.0132.
In the case of AATGGCCC, the “PBM E-score” value was 0.0152.
In the case of ACGTCACG, the “PBM E-score” value was -0.12.
For CGGAATGC, the “PBM E-score” value was 0.0722.
GAGACAAC was tested, and the “PBM E-score” value was -0.1.
For AAAGCAGT, the “PBM E-score” value was -0.307.
With AACGAGGG the “PBM E-score” value was -0.19.
With CTTATCTC the “PBM E-score” value was -0.0986.
